Article PMC4336329 (PLoS ONE, 2015)
About 14,000 (4.5%) of roughly 310,000 compounds showed an effect of 50% or more. The effect is printed as a negative number. This is one part of the list.

Target: human ether-à-go-go-related gene (hERG) potassium channel (human, UniProt Q12809)
Assay: primary screen, population patch clamp on CHO cells stably expressing hERG
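Note: peak tail current of the secondary pulse compared with the same well before compound.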

human ether-à-go-go-related gene (hERG) potassium channel, sequence (Q12809 whole entry, looked up): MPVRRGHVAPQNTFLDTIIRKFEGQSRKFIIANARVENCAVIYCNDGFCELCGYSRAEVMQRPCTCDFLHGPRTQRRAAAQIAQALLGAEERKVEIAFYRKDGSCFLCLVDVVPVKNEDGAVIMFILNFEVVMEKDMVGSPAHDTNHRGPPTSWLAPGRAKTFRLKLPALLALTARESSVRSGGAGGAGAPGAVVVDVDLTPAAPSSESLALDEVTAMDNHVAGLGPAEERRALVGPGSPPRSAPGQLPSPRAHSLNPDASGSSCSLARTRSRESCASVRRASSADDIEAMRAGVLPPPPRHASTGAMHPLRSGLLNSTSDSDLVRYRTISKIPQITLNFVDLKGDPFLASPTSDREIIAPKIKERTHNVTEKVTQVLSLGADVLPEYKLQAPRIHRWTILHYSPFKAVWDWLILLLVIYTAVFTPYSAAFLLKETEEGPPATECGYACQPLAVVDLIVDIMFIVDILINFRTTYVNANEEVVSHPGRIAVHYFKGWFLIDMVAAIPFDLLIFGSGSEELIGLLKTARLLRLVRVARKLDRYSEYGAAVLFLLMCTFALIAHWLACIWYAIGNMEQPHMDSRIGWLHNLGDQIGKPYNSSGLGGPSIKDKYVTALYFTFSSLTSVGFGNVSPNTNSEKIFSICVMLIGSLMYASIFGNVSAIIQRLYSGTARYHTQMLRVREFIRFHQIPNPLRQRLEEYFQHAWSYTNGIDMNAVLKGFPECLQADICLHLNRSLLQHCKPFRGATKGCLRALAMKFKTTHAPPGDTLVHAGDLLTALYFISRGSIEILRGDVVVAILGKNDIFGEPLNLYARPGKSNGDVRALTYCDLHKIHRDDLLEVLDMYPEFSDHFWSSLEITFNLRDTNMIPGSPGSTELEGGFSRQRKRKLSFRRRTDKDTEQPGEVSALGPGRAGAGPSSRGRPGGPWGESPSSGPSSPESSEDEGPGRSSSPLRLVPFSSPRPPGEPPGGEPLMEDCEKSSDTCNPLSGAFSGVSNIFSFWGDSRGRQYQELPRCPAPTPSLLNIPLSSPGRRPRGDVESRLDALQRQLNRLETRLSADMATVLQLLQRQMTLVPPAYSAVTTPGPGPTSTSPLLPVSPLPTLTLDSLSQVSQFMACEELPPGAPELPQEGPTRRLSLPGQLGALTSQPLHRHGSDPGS

SMILES	hERG current change (%, negative = inhibition) at 10uM
O=C(COc1ccc(S(=O)(=O)N2CCOCC2)cc1)Nc1cccc([N+](=O)[O-])c1	-39%
COC(=O)c1ccc(OC(=O)c2ccccn2)cc1	4.85%
COc1ccc(C(=O)NC(=S)Nc2ccccc2[N+](=O)[O-])cc1OC	19.5%
COc1ccc(/C=C/C(=O)OCC(=O)Nc2ccc(N3CCOCC3)cc2)cc1	59.2%
O=C(CSc1ccc(-c2ccccn2)nn1)c1ccccc1	1.55%
O=C(NC1CCCCC1)c1cc(-c2ccccn2)nc2ccccc12	21.7%
COCCN(CC(=O)NCc1ccccc1)C(=O)CCC(=O)Nc1nccs1	6.81%
O=C1CN(C(=O)C2CC2)c2ccccc2N1	-15.8%
OCC[C@H]1C[C@@H](O)[C@H](O)[C@]2(CCCO2)O1	2.25%
O=C(Cc1csc(Nc2nc(=S)[nH]c3ccccc23)n1)N1CCN(c2cccc(C(F)(F)F)c2)CC1	5.5%
Cn1c(SCc2ccccc2Br)nc2ccccc2c1=O	14.6%
Cl.OCCNCc1cc(Br)ccc1OCc1ccc(Cl)cc1	-66.6%
O=c1oc2ccc(Cl)cc2nc1/C=C(\O)c1cccs1	9.16%
Cc1ccccc1NC(=O)NCc1cccnc1	18.1%
O=S(=O)(NCC1CCCO1)c1cc(Cl)ccc1Cl (stereo not shown)	4.69%
Cc1nn(-c2ccccc2)c(Cl)c1C(=O)Nc1c(C)n(C)n(-c2ccccc2)c1=O	6.38%
O=C1CC(c2ccc(Cl)cc2)n2nc(NS(=O)(=O)c3ccc(F)cc3)nc2N1 (stereo not shown)	1.76%
CN(C)S(=O)(=O)c1cc(NC(=O)c2cc(=O)c3ccccc3o2)ccc1Cl	1.08%
O=C1c2ccccc2NC(c2ccc(-c3ccc(F)cc3)o2)N1O (stereo not shown)	-2.86%
Cl.NS(=O)(=O)c1ccc(CCNCC#Cc2ccccc2)cc1	-21.6%
COc1ccccc1C(=O)N(Cc1nc(-c2ccc(Cl)cc2)no1)C(C)C	-19.3%
CCCN1C(=O)c2cc(C(=O)NCCc3cccc(C)c3)ccc2C1O (stereo not shown)	0.0443%
O=C(NC1C(=O)NNC1c1ccc(Cl)cc1)c1ccc(F)cc1 (stereo not shown)	-4.18%
Cc1cc(C(=O)NCc2ccccc2Cl)n(-c2ccccc2)n1	-3.77%
Nc1nc(Cl)nc2ncn(Cc3ccccc3)c12	21.7%
